Measurements as given in US20140045779A1, “COMPOUNDS CONTAINING AN ALICYCLIE STRUCTURE AND ANTI-TUMOR APPLICATION” (priority 2011, published 2014).
In brackets after ≈: the same amount, converted by molar mass.

Tested on: human lung cancer cell line NCI-H460
Test: In vitro anti-cancer cell experiment (MTT), NCI-H460
Details: NCI-H460, read-out: IC50, anti-proliferative effect on NCI-H460 cells

| Compound | IC50 [µg/mL] |
| --- | --- |
| O=C1C2CC3CC(C2)OC1C3 (stereo not shown) [Example 43, 2-oxaadamantan-4-one] | 13.7 (≈ 89.7 µM) |
| OC12CC3CC(CC(C3)O1)C2 [Example 47, 2-oxaadamantan-1-ol] | 17.2 (≈ 112 µM) |
| COc1cc(C23CN4CN(C2)CC(c2cc(OC)c(OC)c(OC)c2)(C4)C3=O)cc(OC)c1OC [Example 62, (1r,3r,5r,7r)-5,7-bis(3,4,5-trimethoxyphenyl)-1,3-diazaadamantan-6-one] | 4.89 (≈ 10.1 µM) |
| CCCCCNC12CN3CN(CN(C3)C1)C2 [Example 68, (1s,3s,5s)-N-pentyl-1,3,5-triazaadamantan-7-amine] | 3.38 (≈ 15.1 µM) |
